In PubChem BioAssay AID1347165 (National Center for Advancing Translational Sciences (NCATS), 2019):
Among all 220,000 compounds or so, about 5,700 (2.6%) were called active. Inconclusive results, whose numbers are uncertain, are shown with a selection of clear calls. Calls come from the whole dose curve; as a rule, active = well fitted inhibition curve with a large enough effect; inconclusive = small, poorly fitted or top-dose-only effect; inactive = no such curve, though single readings can be large or run the other way. Where the call is inconclusive, the potency comes from a doubtful curve fit.

Target: Lysine-specific demethylase 5B (Homo sapiens) (UniProt Q9UGL1)
Assay: Primary screen for KDM5B Histone Demethylases FDH-coupled qHTS; note: nearly all actives have a fitted effect of over 70% in size; for activity change, negative = inhibition: 0% is about no effect
Details: FDH-coupled NADH fluorescence (FDH is formaldehyde dehydrogenase); activity change, negative = inhibition: at 57.7 µM (top of the series) unless noted
Procedure, shortened: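 qHTS format, multiple compound concentrations. Buffer 50 mM HEPES pH 7.5/0.01% Tween-20; 200 nM KDM5BΔAP final; 10 min compound preincubation; substrate-mix levels 12.5 µM peptide, 25 µM α-KG, 0.25 mM NAD⁺; 30 min RT; ΔRFU.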
Potency is the fitted concentration of half-maximal effect; tags give direction and shape of the fitted curve.

Chain of UniProt Q9UGL1 (Q9UGL1 whole entry, looked up): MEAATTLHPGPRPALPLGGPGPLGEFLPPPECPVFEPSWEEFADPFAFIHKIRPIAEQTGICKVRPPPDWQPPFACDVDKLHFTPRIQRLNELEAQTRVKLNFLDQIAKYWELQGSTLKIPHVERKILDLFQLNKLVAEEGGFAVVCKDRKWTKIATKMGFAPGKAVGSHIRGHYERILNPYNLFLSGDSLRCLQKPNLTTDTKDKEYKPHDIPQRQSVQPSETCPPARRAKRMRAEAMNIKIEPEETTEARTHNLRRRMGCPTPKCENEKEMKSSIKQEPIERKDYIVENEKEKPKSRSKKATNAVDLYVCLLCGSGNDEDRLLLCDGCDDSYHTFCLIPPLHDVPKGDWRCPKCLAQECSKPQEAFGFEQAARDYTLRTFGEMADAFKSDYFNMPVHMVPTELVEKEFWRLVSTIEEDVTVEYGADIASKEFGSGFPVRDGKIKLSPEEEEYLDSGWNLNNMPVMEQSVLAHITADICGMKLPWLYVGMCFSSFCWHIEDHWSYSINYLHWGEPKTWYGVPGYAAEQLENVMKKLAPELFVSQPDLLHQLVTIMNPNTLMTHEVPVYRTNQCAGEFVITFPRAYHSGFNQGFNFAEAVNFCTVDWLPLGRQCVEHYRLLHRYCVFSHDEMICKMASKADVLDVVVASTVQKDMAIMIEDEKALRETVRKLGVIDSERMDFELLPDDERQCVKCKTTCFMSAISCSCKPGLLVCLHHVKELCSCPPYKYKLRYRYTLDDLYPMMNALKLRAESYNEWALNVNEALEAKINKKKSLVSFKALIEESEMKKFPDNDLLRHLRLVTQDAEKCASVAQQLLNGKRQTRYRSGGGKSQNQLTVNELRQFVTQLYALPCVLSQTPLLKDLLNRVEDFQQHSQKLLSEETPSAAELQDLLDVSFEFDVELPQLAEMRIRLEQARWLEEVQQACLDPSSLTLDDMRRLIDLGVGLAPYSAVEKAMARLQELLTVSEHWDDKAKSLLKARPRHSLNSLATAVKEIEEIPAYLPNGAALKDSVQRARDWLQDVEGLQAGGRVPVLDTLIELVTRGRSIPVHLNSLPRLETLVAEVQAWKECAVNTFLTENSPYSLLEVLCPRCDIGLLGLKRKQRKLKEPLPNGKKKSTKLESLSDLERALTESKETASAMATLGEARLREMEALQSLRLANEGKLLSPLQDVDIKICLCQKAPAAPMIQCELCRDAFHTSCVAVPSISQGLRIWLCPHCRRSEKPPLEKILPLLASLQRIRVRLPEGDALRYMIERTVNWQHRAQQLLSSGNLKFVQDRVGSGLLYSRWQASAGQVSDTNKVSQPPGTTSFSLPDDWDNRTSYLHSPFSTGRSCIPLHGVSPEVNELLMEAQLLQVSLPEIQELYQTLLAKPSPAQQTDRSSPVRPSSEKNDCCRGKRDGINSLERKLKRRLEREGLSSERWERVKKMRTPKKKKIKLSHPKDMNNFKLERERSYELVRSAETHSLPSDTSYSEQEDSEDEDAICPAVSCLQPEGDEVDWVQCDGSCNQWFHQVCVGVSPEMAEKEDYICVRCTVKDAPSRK

Q: Which Potency does the source give for O=C(Nc1ccc2nc(SCC(=O)N3CCOCC3)sc2c1)c1cccc(Cl)c1 here?
A: Its Potency is inconclusive: 39.8 µM [inhibitor, single point].

Q: How did the Potency turn out when Cc1ccccc1-c1cc(O)c2c(c1)CN(C(=O)C1CCNCC1)CCO2 was run?
A: Its Potency is “inactive”.

Q: How did the Potency turn out when CC(C)Nc1sc(C(=O)c2ccccc2)c(N)c1C#N was run?
A: The Potency was “inactive”.

Q: For CN(C)CCN(C(=O)c1ccc(S(=O)(=O)N(C)c2ccccc2)cc1)c1nc2cc3c(cc2s1)OCCO3, which Potency is on record?
A: Its Potency is inconclusive: 25.1 µM [inhibitor, single point].

Q: Which Potency does the source give for Cc1cc(OCCn2cc(C(=O)c3cccs3)c3ccccc32)ccc1Cl here?
A: The Potency was inconclusive: 15.8 µM [inhibitor, partial curve, poor fit].

Q: COc1ccc(-c2noc([C@@H]3CCCN3C(=O)c3ccc(Cl)cc3)n2)cc1 was tested. Which Potency did it give?
A: The Potency was “inactive”.

Q: O=C(NC[C@H]1O[C@@H](CC(=O)N2CCc3ccccc32)[C@H](O)[C@@H]1O)Nc1cccc(F)c1 was tested. Which Potency did it give?
A: The Potency was “inactive”.

Q: Cc1ccc(NC(=O)CN2CCN(C(=O)CCNS(=O)(=O)c3ccc4ccccc4c3)CC2)cc1 was tested. Which Potency did it give?
A: The Potency was “inactive”.

Q: For COc1ccc(N2CC(NC(=O)/C=C\c3ccccc3)CC2=O)cc1 (centres undefined), which activity change, negative = inhibition is on record?
A: Its activity change, negative = inhibition is inconclusive: -30.4% [inhibitor].

Q: For CCCn1nccc1C(=O)NCc1cccnc1Oc1ccc(C)nc1, which Potency is on record?
A: Its Potency is active: 31.6 µM.

Q: With O=c1c2nc(-c3ccc(O)c(F)c3)ccc2ncn1-c1ccccc1 as the compound, how does the Potency read?
A: The Potency was inconclusive: 35.5 µM [inhibitor, partial curve, poor fit].

Q: How did the Potency turn out when Cc1ncsc1CN1CCCN(S(=O)(=O)c2ccccc2)CCC(=O)NCC1 was run?
A: Its Potency is inconclusive: 22.4 µM [inhibitor, partial curve, poor fit].

Q: With Cc1ccc(C(C)C)c(OCc2n[nH]c(=S)n2Cc2ccc(Cl)cc2)c1 as the compound, how does the Potency read?
A: Its Potency is “inactive”.

Q: For CCN(CC)CCCN=C(N)N, which Potency is on record?
A: The Potency was inconclusive: 22.4 µM [inhibitor, partial curve, poor fit].

Q: For CCOc1cccc(CN(C)C2CCc3nn(CC4CC4)c(=O)n3CC2)c1 (centres undefined), which Potency is on record?
A: The Potency was inconclusive: 20 µM [inhibitor, partial curve, poor fit].

Q: COc1ccc(Cn2nc(C(=O)O)c3ccccc3c2=O)cc1 was tested. Which Potency did it give?
A: The Potency was inconclusive: 22.4 µM [inhibitor, partial curve, poor fit].

Q: How did the Potency turn out when CNC(=O)C1(N2CCC[C@H]2C(=O)N2CCC(C)CC2)CCCCC1 was run?
A: The Potency was inconclusive: 28.2 µM [inhibitor, partial curve, poor fit].

Q: COc1ccc(C)cc1NC(=O)CCS(=O)(=O)c1cc2c3c(c1)CCN3C(=O)CC2 was tested. Which Potency did it give?
A: The Potency was inconclusive: 25.1 µM [inhibitor, partial curve, poor fit].

Q: With CCOC(=O)N1CCc2c(sc(NCc3sccc3C)c2C(=O)Nc2ccc(OC)cc2OC)C1 as the compound, how does the Potency read?
A: Its Potency is inconclusive: 7.08 µM [inhibitor, partial curve, poor fit].
